Over roughly 110,000 compounds, “z-score” has its median near -0.1; the highest 2% begin near 2. Some of the results follow. The source made the active and inactive calls.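 How the source made its calls: active means z-score in the third read window above 3 or below -3; inactive means the rest.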
Biological target: Metabotropic glutamate receptor 8 (Rattus norvegicus) (UniProt P70579)
Assay: mGluR8 Gi/Go-coupled signaling modulation – cell-based, rat, thallium flux, HTS, primary screen (AID 488969)
Conditions: HEK293 rat mGluR8, GIRK (G protein-gated inwardly rectifying potassium channel) thallium flux, FluoZin2; at 10 µM; stronger effect = higher value; submaximal glutamate (EC20) added with thallium

UniProt P70579, sequence (P70579 whole entry, looked up): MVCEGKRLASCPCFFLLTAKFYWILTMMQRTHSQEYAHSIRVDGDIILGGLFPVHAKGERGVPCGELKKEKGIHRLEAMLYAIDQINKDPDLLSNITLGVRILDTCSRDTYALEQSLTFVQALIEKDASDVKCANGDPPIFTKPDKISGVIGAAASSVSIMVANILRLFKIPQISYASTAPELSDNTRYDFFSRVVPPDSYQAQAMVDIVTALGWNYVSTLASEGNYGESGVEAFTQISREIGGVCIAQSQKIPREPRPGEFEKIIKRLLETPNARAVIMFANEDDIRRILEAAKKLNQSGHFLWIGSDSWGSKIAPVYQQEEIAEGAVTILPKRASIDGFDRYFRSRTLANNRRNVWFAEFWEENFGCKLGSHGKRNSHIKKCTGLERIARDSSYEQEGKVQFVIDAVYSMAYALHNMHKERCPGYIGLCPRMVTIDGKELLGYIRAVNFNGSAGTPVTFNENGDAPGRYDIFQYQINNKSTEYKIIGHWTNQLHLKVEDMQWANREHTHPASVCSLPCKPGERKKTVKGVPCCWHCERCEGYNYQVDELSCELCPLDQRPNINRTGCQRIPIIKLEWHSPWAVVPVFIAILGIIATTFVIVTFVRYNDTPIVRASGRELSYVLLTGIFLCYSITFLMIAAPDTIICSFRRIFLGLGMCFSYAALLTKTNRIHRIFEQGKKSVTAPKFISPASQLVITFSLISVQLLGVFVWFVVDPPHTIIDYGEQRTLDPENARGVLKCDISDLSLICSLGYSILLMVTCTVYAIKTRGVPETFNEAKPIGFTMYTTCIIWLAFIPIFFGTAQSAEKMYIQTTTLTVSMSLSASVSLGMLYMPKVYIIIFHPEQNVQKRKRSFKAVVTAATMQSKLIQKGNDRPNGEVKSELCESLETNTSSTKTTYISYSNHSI

Compound	z-score
Cc1cc(C)cc(OCC(=O)Nc2ccccc2N2CCCCC2)c1	-0.0189
Cc1noc(C)c1S(=O)(=O)N1CCCC(C(=O)NCc2ccccn2)C1 (configuration not stated)	0.292
C=CCC(Nc1ccco1)c1ccccc1 (configuration not stated)	-0.144
COc1cccc(-c2nnc(SCC(=O)Nc3ccc4c(c3)OCCO4)n2Cc2ccco2)c1	-1.33
CC1CN(C(=O)C2CCCCC2)C(C)CN1C(=O)C1CCCCC1 (configuration not stated)	active: 11.1
O=C(CSc1nc2ccccc2c(=O)n1-c1ccccc1)N1CCN(CCO)CC1	-0.68
COc1ccc(S(=O)(=O)c2cnc3ccc(OC)cc3c2N2CCC3(CC2)OCCO3)cc1	-1.24
CCSc1ccccc1C(=O)NCc1ccc(S(N)(=O)=O)cc1	0.131
Fc1ccccc1CSc1ncnc2sc3c(c12)CCCC3	-0.212
COc1cc(O)oc1C=Nc1ccccc1	-0.0368
Cc1ccc(Nc2nc(OC(C(F)(F)F)C(F)(F)F)nc(N3CCOCC3)n2)cc1	0.581
O=S1(=O)CC(O)C(N2CCC(c3ccccc3)CC2)C1 (configuration not stated)	0.737
Cc1ccc(S(=O)(=O)CC(=O)N2CCCC2)cc1	-0.0858
CC(=O)O[C@H]1CC[C@@]2(C)C(CCC3C2CC[C@]2(C)OC(=O)CCC32)C1 (some centres not stated)	-0.388
CCn1c(SCC(=O)N(Cc2ccccc2)C2CCS(=O)(=O)C2)nc2ccccc2c1=O (configuration not stated)	0.0946
Cc1csc(N(C)C(=O)CSc2nnc(COc3ccccc3C)o2)n1	0.03
O=C(NCc1ccco1)C(Cc1ccccc1)N1C(=O)c2ccccc2C1=O (configuration not stated)	-1.05
COCCNC(=O)CN1CCN(Cc2cccc(Cl)c2)C1=O	0.748
COC(=O)c1ccccc1NC(=O)CNC(=O)c1ccco1	-0.308
Cc1ccc2c(c1)[nH]c1c(=O)n(Cc3ccccn3)cnc12	-0.835
CC(C)c1ccc(-c2cc(C(=O)N3N=C(C(F)F)CC3(O)C(F)F)c3ccccc3n2)cc1 (configuration not stated)	-0.144
COc1cc(/C=N\NC(=O)C2CC3C=CC2C3)ccc1O (configuration not stated)	-0.0835
CCC(=O)Nc1c(S(=O)(=O)c2ccccc2)c2nc3ccccc3nc2n1Cc1ccccc1	-0.5

Compound	z-score
CCOC(=O)c1c2ccc(OCC(=O)N/N=C/c3ccccc3C(F)(F)F)cc2n2ccccc12	-0.472
COc1ccccc1C(C)NC(=O)c1ccc(C)o1 (configuration not stated)	-0.152
Cn1c(SCCCC(=O)c2ccc(Br)cc2)nnc1-c1ccncc1	-0.186
COc1cccc(-n2c(N)c(C#N)c3ccc([N+](=O)[O-])cc3c2=O)c1	0.0503
Cc1ccc(CNC(=O)C2CCC(=O)N2CCc2ccccc2)cc1 (configuration not stated)	0.123
COCCSc1nnc(NC(=O)Cc2cccs2)s1	0.124
COc1ccccc1NC(=O)N1CCN(c2cc(-c3ccccc3)nc3ncnn23)CC1	-1.42
CC1CCN(Cc2nc3c(c(=O)n(C)c(=O)n3C)n2CCCc2ccccc2)CC1	-0.163
CCOC(=O)C1(C)NC(c2ccc(N(C)C)cc2)C2C(=O)N(CC)C(=O)C21 (configuration not stated)	-0.204
COCCN1C(=O)c2ccccc2C(C(=O)N2CCN(c3ccccc3)CC2)C1c1ccc(F)cc1 (configuration not stated)	-0.216
O=S(=O)(c1ccc(Nc2ccc(-c3ccc4c(c3)OCCO4)nn2)cc1)N1CCCC1	-0.0326
Cc1nnn(C23CC4CC(CC(CC(=O)Nc5ccc(C)c(Cl)c5)(C4)C2)C3)n1	-0.593
COc1ccc2cc(/C=C3\SC(=S)NC3=O)c(N3CCOCC3)nc2c1	0.195
CCOC(=O)c1c(-c2ccc(OC)cc2)csc1NC(=O)CSc1ncnc2sccc12	-0.0957
CC(=O)Nc1ccc(S(=O)(=O)N2CCCc3ccccc32)cc1	0.436
COc1ccc(-c2nc(N3CCCC3)[nH]c(=O)c2C#N)cc1	0.353
CCOC(=O)c1c(NC(=O)CSc2nnc(C)s2)sc2c1CCC(C)C2 (configuration not stated)	-0.619
COc1ccc(C2CC(c3ccc(Br)cc3)=NN2C(=O)c2cccnc2)cc1 (configuration not stated)	-0.107
Cc1oc(-c2ccccc2)cc1C(=O)NC(Cc1c[nH]c2ccccc12)C(=O)O (configuration not stated)	-0.00352
c1ccc(C2Nc3ccccc3Oc3ccccc32)cc1 (configuration not stated)	-0.102
COc1ccc(CNC(=O)Cn2cc([N+](=O)[O-])nc2C)cc1	-0.0622
CCOc1ccccc1CNCCN1CCOCC1	0.261
Cc1cccc(NC(=O)c2cc(NC(=O)c3ccco3)ccc2N2CCCCC2)c1	-0.0292

Compound	z-score
COc1cc(CNCCSc2nnnn2C)cc(Br)c1OCc1ccccc1F	0.913
Cc1onc(-c2c(F)cccc2Cl)c1C(=O)NCCCN1CCOCC1	-0.318
CCn1cc(C2=NOC(C(=O)Nc3ccccc3C(=O)OC)C2)c(C)n1 (configuration not stated)	-0.574
CCOc1cc(CNCCO)cc(Br)c1OCc1ccccc1Cl	0.439
Cc1nc2c(n1C1CCCCC1)C(=O)c1ccccc1C2=O	-0.358
CC[n+]1ccc(C[n+]2ccccc2)c2ccccc21	-0.112
O=C(COc1nc2ccccc2nc1N1CCOCC1)Nc1cccc(S(=O)(=O)N2CCCCC2)c1	0.0921
CCC1(CC)C(=O)NC(=O)NC1=NCCc1ccc(O)cc1	-0.138
CCOC(=O)c1cc(OC(=O)c2cccnc2)n(-c2ccccc2)n1	-0.265
O=[N+]([O-])c1cccc(S(=O)(=O)NCC2CCCO2)c1 (configuration not stated)	0.197
CCC(C)OC(=O)C1=C(C)NC(=O)CC1c1ccccc1OC (configuration not stated)	-0.413
O=C1Cn2c(nc3ccccc32)N1c1cccc(C(F)(F)F)c1	1
CN1C(=O)c2ccc(N(C)C)cc2C1=O	0.32
CCC(NC(=O)C1CCC1)c1ccc(C)cc1 (configuration not stated)	-0.0362
Cc1cc(C)nc(SCCS(=O)Cc2ccc(Cl)cc2)n1 (configuration not stated)	0.424
O=S(=O)(c1ccccc1)N1CCN(c2ncccn2)CC1	-0.134
Cc1ccc(CN(C)C(=O)c2ccccc2Oc2ccccc2)o1	-0.179
CCOC(=O)CCC(=O)c1c(C)oc2ccc(OC)cc12	-0.286
COc1ccc(/C=C/C(=O)c2ccc3c4c(cccc24)CC3)cc1	0.191
C(=N\Nc1nc(-c2ccccc2)cs1)/c1cccs1	-0.0376
CCOc1ccc(NC(=O)CNC(=O)COc2ccccc2)cc1	1.77
O=C(NC1CCS(=O)(=O)C1)Oc1ccc(Cl)cc1 (configuration not stated)	-0.219
O=C(CCN1C(=O)C2CC=C(Cl)CC2C1=O)N1CCCCC1 (configuration not stated)	-0.175

Compound	z-score
COc1ccc(OC)c(C2C(C(C)=O)=C(O)C(=O)N2CCN2CCOCC2)c1 (configuration not stated)	-0.0658
CCn1ncc(Br)c1C(=O)NC(C)c1ccccc1 (configuration not stated)	0.000248
Cc1cc(Oc2ccccc2)nc(-c2ccccc2O)n1	0.13
CCOC(=O)C1CCN(C(=O)CCNC(=O)Cn2ccc3ccccc3c2=O)CC1	0.0162
COc1ccc(CCNC(=O)CCNC(=O)c2ccc(Cl)cc2)cc1OC	-0.0322
C=CCn1c(SCC(=O)N2CCCC2)nc2cc(C(=O)NCC3CCCO3)ccc2c1=O (configuration not stated)	-0.372
COc1ccc(CCNC(=O)C/C(C)=N/NC(=O)c2ccc(N)cc2)cc1OC	-0.213
CCc1nc(N2CCCCC2C)c2oc3ccccc3c2n1 (configuration not stated)	-0.175
CN(Cc1ccco1)C(=O)c1ccc(N2CCCC2=O)cc1	-0.119
COc1cc(CNn2cn[nH]c2=S)cc(Cl)c1OCc1ccc(F)cc1	-0.0761
O=C(CCn1c(=O)sc2ccccc21)Nc1nccs1	-0.657
CN1C(=O)OC(C)(CCc2ccccc2)C1(C)O (configuration not stated)	-0.0618
Cc1cc(C)cc(NC(=O)c2ccc(CNc3c(N4CCOCC4)c(=O)c3=O)cc2)c1	-0.157
O=C(O)CCn1cc(/C=C/C(=O)c2ccc(Cl)cc2)c(-c2ccc(Br)cc2)n1	-0.772
COc1ccc(CNC(=O)c2cnc3cc(C)ccn3c2=O)cc1	-0.0151
NC(=O)CSc1nnc(-c2ccccc2Br)n1-c1cccc(C(F)(F)F)c1	-0.416
COc1ccc(-n2c(C)c(C(C)=O)c(C(C)=O)c2C)cc1OC	0.505
CCCC/C(O)=C/c1nc2ccccc2[nH]c1=O	0.252
Fc1ccc(Cl)cc1/C=N/n1cnnc1SCc1ccccc1	-0.0925
COC(=O)CNC(=O)C(C)(C)Oc1ccc(Cl)cc1	-0.255
Cc1cc(N2CCOCC2)cc(C)[n+]1[O-]	0.665
COc1cccc(N2CC34C=CC(O3)C(C(=O)O)C4C2=O)c1 (configuration not stated)	0.357
Cc1cc(C)nc(NC(=O)c2ccc(OC(C)C)cc2)n1	0.289

Compound	z-score
C#CCN1C(=O)C2C(C(=O)NC)C3C=CC2(O3)C1C(=O)NCc1ccc(OC)cc1 (configuration not stated)	0.849
CC(=O)Nc1nc(N2C(=O)c3ccccc3C2=O)n(-c2ccccc2)n1	0.429
COc1cc2c(cc1NC(=O)c1cc(-c3cccnc3)nc3ccc(C)cc13)oc1ccccc12	-0.138
CCOc1ccc(-c2[nH]nc3c2C(c2cccnc2)C(C#N)=C(N)O3)cc1 (configuration not stated)	-1.45
COc1cccc(N2CCN(CC(=O)Nc3ccc(SC(F)F)cc3)CC2)c1	-0.228
COc1ccc2nc(NC(=O)c3cc(C)oc3C)sc2c1	0.104
COCCNC(=O)Cn1nc(C(F)(F)F)cc1C	0.0117
Cc1cc(N2C(=O)C3C4C=CC(C4)C3C2=O)ccc1Br (configuration not stated)	-0.201
O=C(NCCN1CCOCC1)[C@H](Cc1ccccc1)N1C(=O)c2ccccc2C1=O	-0.28
Nc1nnc(SCCN2C(=O)c3ccccc3C2=O)s1	-0.145
O=S(=O)(CCOc1ccccc1)c1nc2ccccc2[nH]1	0.291
COc1ccc(S(=O)(=O)NCc2ccc(C)cc2)cc1	-0.0522
N=c1c(C(=O)NCc2ccco2)cc2c(=O)n3ccccc3nc2n1CC1CCCO1 (configuration not stated)	0.0706
Cc1ccc(C)c(-n2cc[nH]c2=S)c1	-0.0322
COc1ccc([C@@H]2[C@H]3C(=O)N(c4cccc(C(F)(F)F)c4)C(=O)[C@H]3ON2C)cc1	-0.251
CC12CCC(C(=O)Nc3ccccc3-n3cccc3)(CC1=O)C2(C)C (configuration not stated)	0.17
COc1cccc(NC(=O)CN(C)C(=O)COc2ccc3ccccc3c2)c1	-0.0111
CC(C)N(CCCNC(=O)CC1Oc2ccccc2NC1=O)Cc1ccccc1 (configuration not stated)	0.44
O=C(Nc1nnc(CC2=CCCCC2)s1)c1cccs1	-0.848
O=C(O)CSc1sc(=S)sc1SCC(=O)O	-0.442

— PubChem BioAssay AID488969 (Vanderbilt High Throughput Screening Facility, 2010)
